Like-named read-outs stand apart in the source and are kept apart here.
Assays:
reserpine hypothermia = assay: counteracting reserpine hypothermia; conditions: Mus musculus, po, read-out: minimum oral dose effective in counteracting reserpine hypothermia
[1] = system: hypothermia induced by apomorphine; assay: inhibition of hypothermia induced by apomorphine (apomorphine test); conditions: Mus musculus, read-out: ED-50 in counteracting the hypothermia induced by apomorphine

SMILES	minimal effective dose (reserpine hypothermia) [mg/kg]	ED50 ([1]; ip) [mg/kg]	ED50 ([1]; po) [mg/kg]
CN(C)CC(=O)N1c2ccccc2N(C)S(=O)(=O)c2ccccc21 [Compound 1, 6-Methyl-6,11-dihydro-11-(N,N-dimethylaminoacetyl)dibenzo[c,f][1,2,5]thiadiazepine 5,5-dioxide]	25	4.7	13.5
CN(C)CCCN1c2ccccc2N(C)S(=O)(=O)c2ccccc21 [reference compound]	100		

From US5011833A, “Novel derivatives of 6,11-dihydro-dibenzo(C,F)(1,2,5)-thiadiazepine 5,5-dioxide, salts thereof and appropriate processes for the preparation thereof” (A. Menarini Industrie Farmaceutiche Riunite, priority 1988, dated 1991)
